Biological target: Recombinant heterodimeric HCV NS3/NS4A protease (strain 1a) (Hepatitis C virus genotype 1a, UniProt P27958)
Assay: Spectrophotometric assay for HCV protease inhibitory activity (chromogenic ester substrates)
Assay type: biochemical

Compound | Ki (Table 3, Ki* range class) [nM] | Ki (Table 1, Ki* range class) [nM] | other results
CC(C)(C)OCC1(NC(=O)N[C@H](C(=O)N2C[C@H]3[C@@H]([C@H]2C(=O)NC(CC2CC2)C(=O)C(N)=O)C3(C)C)C2(C)CCCCC2)CCCCC1 (stereo partly shown) [Example 1683] | < 75 |  | 
CC(C)(C)[C@H](NC(=O)N[C@H](COC(=O)OCC1CC1)C(C)(C)C)C(=O)N1C[C@H]2[C@@H]([C@H]1C(=O)NC(CC1CCC1)C(=O)C(N)=O)C2(C)C (stereo partly shown) [Example 1412] |  |  | Ki (Table 2, Ki* range class): < 75 nM
CCNC(=O)OC[C@@H](NC(=O)N[C@H](C(=O)N1C[C@H]2[C@@H]([C@H]1C(=O)NC(CC1CC1)C(=O)C(N)=O)C2(C)C)C1CCCCC1)C(C)(C)C (stereo partly shown) [Example 1082] |  | < 75 | 
CC(C)NC(=O)OC[C@@H](NC(=O)N[C@H](C(=O)N1C[C@H]2[C@@H]([C@H]1C(=O)NC(CC1CC1)C(=O)C(N)=O)C2(C)C)C1Cc2ccccc2C1)C(C)C (stereo partly shown) [Example 1008] |  | < 75 | 
COC[C@@H](NC(=O)N[C@H](C(=O)N1C[C@H]2[C@@H]([C@H]1C(=O)NC(CC1CCC1)C(=O)C(N)=O)C2(C)C)C1(C)CCCCC1)C(C)C (stereo partly shown) [Example 1657] | < 75 |  | 
C#CCCC(NC(=O)[C@@H]1[C@@H]2[C@H](CN1C(=O)[C@@H](NC(=O)N[C@H](COC(=O)NCC1CC1)C(C)(C)C)C1(C)CCCCC1)C2(C)C)C(=O)C(=O)NCCC (stereo partly shown) [Example 1117] |  |  | Ki (Table 1A, Ki* range class): < 75 nM; Ki (Table 6A, numeric Ki*): 19 nM
CO[C@H](c1ccccc1)C(NC(=O)N[C@H](C(=O)N1C[C@H]2[C@@H]([C@H]1C(=O)NC(CC1CC1)C(=O)C(N)=O)C2(C)C)C(C)(C)C)C(C)C (stereo partly shown) [Example 1669] | < 75 |  | 
C#CCCC(NC(=O)[C@@H]1[C@@H]2[C@H](CN1C(=O)[C@@H](NC(=O)N[C@H](COC(=O)NC(C)C)C(C)(C)C)C1(C)CCCCC1)C2(C)C)C(=O)C(=O)NCCC (stereo partly shown) [Example 1098] |  | < 75 | Ki (Table 6, numeric Ki*): 15 nM
CC(C)NC(=O)OC[C@@H](NC(=O)N[C@H](C(=O)N1C[C@H]2[C@@H]([C@H]1C(=O)NC(CC1CC1)C(=O)C(N)=O)C2(C)C)C1Cc2ccccc2C1)C(C)(C)C (stereo partly shown) [Example 1013] |  | < 75 | 
C=CCNC(=O)C(=O)C(CCCC)NC(=O)[C@@H]1[C@@H]2[C@H](CN1C(=O)[C@@H](NC(=O)N[C@H](COC(C)(C)C)C(C)(C)C)C1(C)CCCCC1)C2(C)C (stereo partly shown) [Example 1675] | > 250 |  | 
C=CCNC(=O)C(=O)C(CCC)NC(=O)[C@@H]1[C@@H]2[C@H](CN1C(=O)[C@@H](NC(=O)N[C@H](COC)C(C)(C)C)C1CCCCC1)C2(C)C (stereo partly shown) [Example 1671] | 75 to 250 |  | 
CC(C)NC(=O)OC[C@@H](NC(=O)N[C@H](C(=O)N1C[C@H]2[C@@H]([C@H]1C(=O)NC(CC1CC1)C(=O)C(N)=O)C2(C)C)C1CCCC1)C(C)(C)C (stereo partly shown) [Example 1054] |  | < 75 | 
CN(C)C(=O)OC[C@@H](NC(=O)N[C@H](C(=O)N1C[C@H]2[C@@H]([C@H]1C(=O)NC(CC1CCC1)C(=O)C(N)=O)C2(C)C)C1Cc2ccccc2C1)C(C)(C)C (stereo partly shown) [Example 1034] |  | < 75 | 
CC(C)(C)[C@H](NC(=O)NC1(C(OCOCc2ccccc2)c2ccccc2)CCCC1)C(=O)N1C[C@H]2[C@@H]([C@H]1C(=O)NC(CC1CC1)C(=O)C(N)=O)C2(C)C (stereo partly shown) [Example 1634] | 75 to 250 |  | 
C#CCCC(NC(=O)[C@@H]1[C@@H]2[C@H](CN1C(=O)[C@@H](NC(=O)N[C@H](COC(=O)NCC)C(C)(C)C)C1(C)CCCCC1)C2(C)C)C(=O)C(=O)NCC (stereo partly shown) [Example 1091] |  | < 75 | 
C=CCNC(=O)C(=O)C(CC1CC1)NC(=O)[C@@H]1[C@@H]2[C@H](CN1C(=O)[C@@H](NC(=O)N[C@H](COC(=O)NCC)C(C)(C)C)C1CCCCC1)C2(C)C (stereo partly shown) [Example 1084] |  | < 75 | 
C#CCNC(=O)C(=O)C(CCCC)NC(=O)[C@@H]1[C@@H]2[C@H](CN1C(=O)[C@@H](NC(=O)N[C@H](COC(=O)NC(C)C)C(C)(C)C)C1Cc3ccccc3C1)C2(C)C (stereo partly shown) [Example 1070] |  | < 75 | 
COC[C@@H](NC(=O)N[C@H](C(=O)N1C[C@H]2[C@@H]([C@H]1C(=O)NC(CC1CC1)C(=O)C(N)=O)C2(C)C)C1(C)CCCC1)C(C)(C)C (stereo partly shown) [Example 1660] | < 75 |  | 
C=CCNC(=O)C(=O)C(CCC(F)(F)F)NC(=O)[C@@H]1[C@@H]2[C@H](CN1C(=O)[C@@H](NC(=O)N[C@H](COC(=O)NCC)C(C)(C)C)C1CCCCC1)C2(C)C (stereo partly shown) [Example 1083] |  | < 75 | 
CC(C)(C)[C@H](NC(=O)N[C@H](COC(=O)Nc1ccccc1)C(C)(C)C)C(=O)N1C[C@H]2[C@@H]([C@H]1C(=O)NC(CC1CC1)C(=O)C(N)=O)C2(C)C (stereo partly shown) [Example 1006] |  | < 75 | 
CC(C)(C)[C@H](NC(=O)N[C@H](COC(=O)NCC1CC1)C(C)(C)C)C(=O)N1C[C@H]2[C@@H]([C@H]1C(=O)NC(CC1CCC1)C(=O)C(N)=O)C2(C)C (stereo partly shown) [Example 1028] |  | < 75 | 
C#CCCC(NC(=O)[C@@H]1[C@@H]2[C@H](CN1C(=O)[C@@H](NC(=O)N[C@H](COC(=O)NCC)C1CCCCC1)C1(C)CCCCC1)C2(C)C)C(=O)C(=O)NCC=C (stereo partly shown) [Example 1104] |  |  | Ki (Table 1A, Ki* range class): < 75 nM; Ki (Table 6A, numeric Ki*): 13 nM
C#CCCC(NC(=O)[C@@H]1[C@@H]2[C@H](CN1C(=O)[C@@H](NC(=O)N[C@H](COC(=O)NCC)C(C)(C)C)C1(C)CCCCC1)C2(C)C)C(=O)C(=O)NCCC (stereo partly shown) [Example 1093] |  | < 75 | 

Compound | Ki (Table 3, Ki* range class) [nM] | Ki (Table 1, Ki* range class) [nM] | other results
CC(C)[C@@H](COC(=O)NC(C)(C)C)NC(=O)N[C@H](C(=O)N1C[C@H]2[C@@H]([C@H]1C(=O)NC(CC1CC1)C(=O)C(N)=O)C2(C)C)C1Cc2ccccc2C1 (stereo partly shown) [Example 1009] |  | < 75 | 
CCCC(NC(=O)[C@@H]1[C@@H]2[C@H](CN1C(=O)[C@@H](NC(=O)N[C@H](COC(=O)NCC)C(C)(C)C)C1(C)CCCCC1)C2(C)C)C(=O)C(=O)NC1CC1 (stereo partly shown) [Example 1094] |  | < 75 | 
CC(C)(C)C(=O)OC[C@@H](NC(=O)N[C@H](C(=O)N1C[C@H]2[C@@H]([C@H]1C(=O)NC(CC1CC1)C(=O)C(N)=O)C2(C)C)C(C)(C)C)C(C)(C)C (stereo partly shown) [Example 1611] | < 75 |  | 
C=CCNC(=O)C(=O)C(CCC(F)(F)F)NC(=O)[C@@H]1[C@@H]2[C@H](CN1C(=O)[C@@H](NC(=O)N[C@H](COC(=O)NC)C(C)(C)C)C1Cc3ccccc3C1)C2(C)C (stereo partly shown) [Example 1047] |  | < 75 | 
C#CCCC(NC(=O)[C@@H]1[C@@H]2[C@H](CN1C(=O)[C@@H](NC(=O)N[C@H](COC(=O)NCC1CCCCC1)C(C)(C)C)C1(C)CCCCC1)C2(C)C)C(=O)C(=O)NCC=C (stereo partly shown) [Example 1112] |  |  | Ki (Table 1A, Ki* range class): < 75 nM; Ki (Table 6A, numeric Ki*): 20 nM
C=CCNC(=O)C(=O)C(CCC)NC(=O)[C@@H]1[C@@H]2[C@H](CN1C(=O)[C@@H](NC(=O)N[C@H](COC(=O)NC(C)C)C(C)(C)C)C1Cc3ccccc3C1)C2(C)C (stereo partly shown) [Example 1012] |  | < 75 | Ki (Table 6, numeric Ki*): 40 nM
C=CCNC(=O)C(=O)C(CCCC)NC(=O)[C@@H]1[C@@H]2[C@H](CN1C(=O)[C@@H](NC(=O)N[C@H](COC(=O)NCC)C(C)(C)C)C1CCCCC1)C2(C)C (stereo partly shown) [Example 1085] |  | < 75 | Ki (Table 6, numeric Ki*): 11 nM
CC(C)(C)OC[C@@H](NC(=O)N[C@H](C(=O)N1C[C@H]2[C@@H]([C@H]1C(=O)NC(CC1CC1)C(=O)C(N)=O)C2(C)C)C1(C)CCCCC1)C(C)(C)C (stereo partly shown) [Example 1677] | < 75 |  | 
CC(C)(C)[C@H](NC(=O)NC1(C(Cc2ccccc2)OCOCc2ccccc2)CCCCC1)C(=O)N1C[C@H]2[C@@H]([C@H]1C(=O)NC(CC1CC1)C(=O)C(N)=O)C2(C)C (stereo partly shown) [Example 1643] | 75 to 250 |  | 
C=CCNC(=O)C(=O)C(CC1CC1)NC(=O)[C@@H]1[C@@H]2[C@H](CN1C(=O)[C@@H](NC(=O)N[C@H](COC(=O)NC)C(C)(C)C)C1Cc3ccccc3C1)C2(C)C (stereo partly shown) [Example 1039] |  | < 75 | 
CNC(=O)OC[C@@H](NC(=O)N[C@H](C(=O)N1C[C@H]2[C@@H]([C@H]1C(=O)NC(CC1CC1)C(=O)C(N)=O)C2(C)C)C1Cc2ccccc2C1)C(C)(C)C (stereo partly shown) [Example 1429] |  |  | Ki (Table 2, Ki* range class): < 75 nM
C=CCNC(=O)C(=O)C(CCC)NC(=O)[C@@H]1[C@@H]2[C@H](CN1C(=O)[C@@H](NC(=O)N[C@H](COC(=O)NC(C)(C)C)C(C)(C)C)C(C)(C)C)C2(C)C (stereo partly shown) [Example 1018] |  | < 75 | 
C=CCNC(=O)C(=O)C(CCCC)NC(=O)[C@@H]1[C@@H]2[C@H](CN1C(=O)[C@@H](NC(=O)N[C@@](C)(COC)CC(C)C)C1(C)CCCCC1)C2(C)C (stereo partly shown) [Example 1686] | > 250 |  | 
C#CCCC(NC(=O)[C@@H]1[C@@H]2[C@H](CN1C(=O)[C@@H](NC(=O)N[C@H](COC(C)(C)C)C(C)(C)C)C1(C)CCCCC1)C2(C)C)C(=O)C(=O)NCC=C (stereo partly shown) [Example 1676] | 75 to 250 |  | 
CCCCC(NC(=O)[C@@H]1[C@@H]2[C@H](CN1C(=O)[C@@H](NC(=O)N[C@H](COC(=O)NCC)C(C)(C)C)C1Cc3ccccc3C1)C2(C)C)C(=O)C(=O)NCCC (stereo partly shown) [Example 1068] |  | 75 to 250 | 
CNC(=O)OC[C@@H](NC(=O)N[C@H](C(=O)N1C[C@H]2[C@@H]([C@H]1C(=O)NC(CC1CCC1)C(=O)C(N)=O)C2(C)C)C(C)(C)C)C(C)(C)C (stereo partly shown) [Example 1061] |  | < 75 | 
CC(C)(C)NC(=O)OC[C@@H](NC(=O)N[C@H](C(=O)N1C[C@H]2[C@@H]([C@H]1C(=O)NC(CC1CC1)C(=O)C(N)=O)C2(C)C)C1Cc2ccccc2C1)C(C)(C)C (stereo partly shown) [Example 1032] |  | < 75 | 
CC(C)(C)[C@H](NC(=O)NC1(COCc2ccccc2)CCCCC1)C(=O)N1C[C@H]2[C@@H]([C@H]1C(=O)NC(CC1CCC1)C(=O)C(N)=O)C21CC1 (stereo partly shown) [Example 1616] | > 250 |  | 
CC(C)(C)[C@H](NC(=O)N[C@H](COC(=O)NCC1CC1)C(C)(C)C)C(=O)N1C[C@H]2[C@@H]([C@H]1C(=O)NC(CC1CC1)C(=O)C(N)=O)C2(C)C (stereo partly shown) [Example 1432] |  |  | Ki (Table 2, Ki* range class): < 75 nM
CNC(=O)OC[C@@H](NC(=O)N[C@H](C(=O)N1C[C@H]2[C@@H]([C@H]1C(=O)NC(CC1CC1)C(=O)C(N)=O)C2(C)C)C1Cc2ccccc2C1)C(C)(C)C (stereo partly shown) [Example 1041] |  | < 75 | 
C=CCNC(=O)C(=O)C(CCC)NC(=O)[C@@H]1[C@@H]2[C@H](CN1C(=O)[C@@H](NC(=O)N[C@H](COC(=O)Nc1ccccc1)C(C)(C)C)C(C)(C)C)C2(C)C (stereo partly shown) [Example 1016] |  | < 75 | 
CC(C)(C)OC[C@H](NC(=O)N[C@H](C(=O)N1C[C@H]2[C@@H]([C@H]1C(=O)NC(CC1CCC1)C(=O)C(N)=O)C2(C)C)C(C)(C)C)C(C)(C)C (stereo in doubt) [Example 1610] | < 75 |  | 
CCCCC(NC(=O)[C@@H]1[C@@H]2[C@H](CN1C(=O)[C@@H](NC(=O)N[C@H](COC(=O)NCC)C(C)(C)C)C1Cc3ccccc3C1)C2(C)C)C(=O)C(=O)NCCOC (stereo partly shown) [Example 1063] |  | 75 to 250 | 
